Tests used:
[1] = system: E. coli MegaX expressing Tet(X7); assay type: cell-based
[2] = system: E. coli MegaX expressing Tet(50); assay type: cell-based

Compound | concentration giving complete inhibition of bacterial growth [1] | concentration giving complete inhibition of bacterial growth [2] | concentration giving significantly lower growth rate ([1]; TC fixed at 16 μg/mL, Tet(X7) strain, vs no inhibitor)
Cc1c2c(c(O)c3c(O)cccc13)C(=O)[C@]1(O)C(=O)C(C(N)=O)=C(O)[C@@H](N(C)C)[C@@H]1C2 [aTC, anhydrotetracycline] | 32 µg/mL | 8 µg/mL | 
Cc1c2c(c(O)c3c(O)c(NC(=O)c4ccc([N+](=O)[O-])cc4)ccc13)C(=O)[C@]1(O)C(=O)C(C(N)=O)=C(O)[C@@H](N(C)C)[C@@H]1C2 [compound 14, (4S,4aS,12aS)-9-(4-nitrobenzamido)-4-(dimethylamino)-3,10,11,12a-tetrahydroxy-6-methyl-1,12-dioxo-1,4,4a,5,12,12a-hexahydrotetracene-2-carboxamide] |  |  | 2 µg/mL
